# Where a chain is given by its changes, count along the chain named. Some of the results follow.
# T1: RBFOX1 RRM RbFoxmut (Fox-RRM*) (Homo sapiens, UniProt Q9NWB1 109-208, R118D;E147R;N151S;E152T)
# T1 sequence: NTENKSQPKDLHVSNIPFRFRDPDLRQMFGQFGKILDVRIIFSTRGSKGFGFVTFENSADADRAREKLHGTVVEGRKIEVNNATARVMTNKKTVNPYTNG
# B1: CCAACCC (DNA:RNA)
# RNA: GGGAGACCGGAAUUCAGAUUGUCCCCAACCCUUAAAUCCCGUCGUAGCCACCA
# DNA 1: CAATCTGAATTCCGGTCTCCC
# DNA 2: TGGTGGCTACGACGGGATT
# B2: AACGUUC (DNA:RNA)
# RNA: B1 RNA with C25A, C26A, A27C, A28G, C29U, C30U
# DNA 1: CAATCTGAATTCCGGTCTCCC
# DNA 2: TGGTGGCTACGACGGGATT
# B3: GUAUCGG (DNA:RNA)
# RNA: B1 RNA with C25G, C26U, A28U, C30G, C31G
# DNA 1: CAATCTGAATTCCGGTCTCCC
# DNA 2: TGGTGGCTACGACGGGATT
# B4: AGAUCGA (DNA:RNA)
# RNA: B1 RNA with C25A, C26G, A28U, C30G, C31A
# DNA 1: CAATCTGAATTCCGGTCTCCC
# DNA 2: TGGTGGCTACGACGGGATT
# B5: AUCGUCA (DNA:RNA)
# RNA: B1 RNA with C25A, C26U, A27C, A28G, C29U, C31A
# DNA 1: CAATCTGAATTCCGGTCTCCC
# DNA 2: TGGTGGCTACGACGGGATT
# B6: GUCACGU (DNA:RNA)
# RNA: B1 RNA with C25G, C26U, A27C, C30G, C31U
# DNA 1: CAATCTGAATTCCGGTCTCCC
# DNA 2: TGGTGGCTACGACGGGATT
# B7: UAGCACA (DNA:RNA)
# RNA: B1 RNA with C25U, C26A, A27G, A28C, C29A, C31A
# DNA 1: CAATCTGAATTCCGGTCTCCC
# DNA 2: TGGTGGCTACGACGGGATT
# B8: CGAUUUA (DNA:RNA)
# RNA: B1 RNA with C26G, A28U, C29U, C30U, C31A
# DNA 1: CAATCTGAATTCCGGTCTCCC
# DNA 2: TGGTGGCTACGACGGGATT
# B9: AUUAAGC (DNA:RNA)
# RNA: B1 RNA with C25A, C26U, A27U, C29A, C30G
# DNA 1: CAATCTGAATTCCGGTCTCCC
# DNA 2: TGGTGGCTACGACGGGATT
# B10: UAGUAGC (DNA:RNA)
# RNA: B1 RNA with C25U, C26A, A27G, A28U, C29A, C30G
# DNA 1: CAATCTGAATTCCGGTCTCCC
# DNA 2: TGGTGGCTACGACGGGATT
# B11: UAGGCGG (DNA:RNA)
# RNA: B1 RNA with C25U, C26A, A27G, A28G, C30G, C31G
# DNA 1: CAATCTGAATTCCGGTCTCCC
# DNA 2: TGGTGGCTACGACGGGATT
# B12: GGUAAUA (DNA:RNA)
# RNA: B1 RNA with C25G, C26G, A27U, C29A, C30U, C31A
# DNA 1: CAATCTGAATTCCGGTCTCCC
# DNA 2: TGGTGGCTACGACGGGATT
# B13: AAACUGG (DNA:RNA)
# RNA: B1 RNA with C25A, C26A, A28C, C29U, C30G, C31G
# DNA 1: CAATCTGAATTCCGGTCTCCC
# DNA 2: TGGTGGCTACGACGGGATT
# B14: UGUAACA (DNA:RNA)
# RNA: B1 RNA with C25U, C26G, A27U, C29A, C31A
# DNA 1: CAATCTGAATTCCGGTCTCCC
# DNA 2: TGGTGGCTACGACGGGATT
# B15: AUACAUC (DNA:RNA)
# RNA: B1 RNA with C25A, C26U, A28C, C29A, C30U
# DNA 1: CAATCTGAATTCCGGTCTCCC
# DNA 2: TGGTGGCTACGACGGGATT
# B16: AGAGUUA (DNA:RNA)
# RNA: B1 RNA with C25A, C26G, A28G, C29U, C30U, C31A
# DNA 1: CAATCTGAATTCCGGTCTCCC
# DNA 2: TGGTGGCTACGACGGGATT
# B17: UAAGAUU (DNA:RNA)
# RNA: B1 RNA with C25U, C26A, A28G, C29A, C30U, C31U
# DNA 1: CAATCTGAATTCCGGTCTCCC
# DNA 2: TGGTGGCTACGACGGGATT
# B18: GGCCUUG (DNA:RNA)
# RNA: GGGAGACCGGAAUUCAGAUUGUCCGGCCUUGUUAAAUCCCGUCGUAGCCACCA
# DNA 1: CAATCTGAATTCCGGTCTCCC
# DNA 2: TGGTGGCTACGACGGGATT
# B19: GCUCACU (DNA:RNA)
# RNA: B1 RNA with C25G, A27U, A28C, C29A, C31U
# DNA 1: CAATCTGAATTCCGGTCTCCC
# DNA 2: TGGTGGCTACGACGGGATT
# B20: UGAACUG (DNA:RNA)
# RNA: B1 RNA with C25U, C26G, C30U, C31G
# DNA 1: CAATCTGAATTCCGGTCTCCC
# DNA 2: TGGTGGCTACGACGGGATT
# B21: CUUUUCG (DNA:RNA)
# RNA: B1 RNA with C26U, A27U, A28U, C29U, C31G
# DNA 1: CAATCTGAATTCCGGTCTCCC
# DNA 2: TGGTGGCTACGACGGGATT
# B22: GACGCUG (DNA:RNA)
# RNA: B18 RNA with G26A, C28G, U29C
# DNA 1: CAATCTGAATTCCGGTCTCCC
# DNA 2: TGGTGGCTACGACGGGATT
# B23: GAUAAAA (DNA:RNA)
# RNA: B1 RNA with C25G, C26A, A27U, C29A, C30A, C31A
# DNA 1: CAATCTGAATTCCGGTCTCCC
# DNA 2: TGGTGGCTACGACGGGATT
# B24: UAGCCUC (DNA:RNA)
# RNA: B1 RNA with C25U, C26A, A27G, A28C, C30U
# DNA 1: CAATCTGAATTCCGGTCTCCC
# DNA 2: TGGTGGCTACGACGGGATT
# B25: UAAUAGG (DNA:RNA)
# RNA: B1 RNA with C25U, C26A, A28U, C29A, C30G, C31G
# DNA 1: CAATCTGAATTCCGGTCTCCC
# DNA 2: TGGTGGCTACGACGGGATT
# B26: GCCUCGU (DNA:RNA)
# RNA: B1 RNA with C25G, A27C, A28U, C30G, C31U
# DNA 1: CAATCTGAATTCCGGTCTCCC
# DNA 2: TGGTGGCTACGACGGGATT
# B27: GUAGUGG (DNA:RNA)
# RNA: B18 RNA with G26U, C27A, C28G, U30G
# DNA 1: CAATCTGAATTCCGGTCTCCC
# DNA 2: TGGTGGCTACGACGGGATT
# B28: CAAACCG (DNA:RNA)
# RNA: B1 RNA with C26A, C31G
# DNA 1: CAATCTGAATTCCGGTCTCCC
# DNA 2: TGGTGGCTACGACGGGATT
# B29: ACAUCCC (DNA:RNA)
# RNA: B1 RNA with C25A, A28U
# DNA 1: CAATCTGAATTCCGGTCTCCC
# DNA 2: TGGTGGCTACGACGGGATT
# B30: CCAAGAG (DNA:RNA)
# RNA: B1 RNA with C29G, C30A, C31G
# DNA 1: CAATCTGAATTCCGGTCTCCC
# DNA 2: TGGTGGCTACGACGGGATT
# B31: UCCACAA (DNA:RNA)
# RNA: B1 RNA with C25U, A27C, C30A, C31A
# DNA 1: CAATCTGAATTCCGGTCTCCC
# DNA 2: TGGTGGCTACGACGGGATT
# Molecular target: T1, RBFOX1 RRM RbFoxmut (Fox-RRM*)
# Test: EMSA; HiTS-Eq, 1 nM pool, 10 min; buffer printed only for the single-RNA assays: 10 mM Tris pH 7.5, 150 mM NaCl, 3.4 mM EDTA, 0.001% NP-40, 30 C
# Conditions: tags: His6 N-terminal (pET28a); label: 5' 32P
# In short: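 Relative association constants, normalised to the cognate motif, were derived by comparing read counts of each RNA species with those of the control reaction. The RNA sequenced was the free fraction, separated by 8% native PAGE after a 10 min equilibration in 50 µL of 1 nM 5′-radiolabelled RNA (7 randomized nucleotides) with increasing concentrations of purified wild-type or mutant RbFox RRM.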
row,Binder,binding signal
1,B1,0.0844 KA relative to UGCAUGU
2,B2,0.0756 KA relative to UGCAUGU
3,B3,0.156 KA relative to UGCAUGU
4,B4,0.0898 KA relative to UGCAUGU
5,B5,0.133 KA relative to UGCAUGU
6,B6,0.12 KA relative to UGCAUGU
7,B7,0.0689 KA relative to UGCAUGU
8,B8,0.101 KA relative to UGCAUGU
9,B9,0.0979 KA relative to UGCAUGU
10,B10,0.0837 KA relative to UGCAUGU
11,B11,0.111 KA relative to UGCAUGU
12,B12,0.0761 KA relative to UGCAUGU
13,B13,0.0705 KA relative to UGCAUGU
14,B14,0.0864 KA relative to UGCAUGU
15,B15,0.0828 KA relative to UGCAUGU
16,B16,0.154 KA relative to UGCAUGU

row,Binder,binding signal
1,B17,0.0681 KA relative to UGCAUGU
2,B18,0.478 KA relative to UGCAUGU
3,B19,0.0649 KA relative to UGCAUGU
4,B20,0.0738 KA relative to UGCAUGU
5,B21,0.092 KA relative to UGCAUGU
6,B22,0.0687 KA relative to UGCAUGU
7,B23,0.0514 KA relative to UGCAUGU
8,B24,0.0891 KA relative to UGCAUGU
9,B25,0.076 KA relative to UGCAUGU
10,B26,0.224 KA relative to UGCAUGU
11,B27,0.108 KA relative to UGCAUGU
12,B28,0.0853 KA relative to UGCAUGU
13,B29,0.0641 KA relative to UGCAUGU
14,B30,0.127 KA relative to UGCAUGU
15,B31,0.061 KA relative to UGCAUGU
